Experimental data published in PubChem BioAssay AID1030 (National Center for Advancing Translational Sciences (NCATS), 2008).
Where “and” joins values, the source holds several entries; their conditions need not be identical. Equal entries are not always repeated. Screen size: about 220,000 compounds; about 16,000 (7.3%) were called active. The shares of active, inactive and inconclusive entries below differ from those in the screen. The call rests on the fitted dose curve; in most records, active means well fitted inhibition curve with a large enough effect (not every such curve was filed as active); inconclusive means small, poorly fitted or top-dose-only effect, or another doubt; inactive means no such curve, though single readings can be large or run the other way. Potencies of inconclusive entries are left out as doubtful fits.

Target: Aldehyde dehydrogenase 1A1 (Homo sapiens) (UniProt P00352)
UniProt P00352, sequence (P00352 whole entry, looked up): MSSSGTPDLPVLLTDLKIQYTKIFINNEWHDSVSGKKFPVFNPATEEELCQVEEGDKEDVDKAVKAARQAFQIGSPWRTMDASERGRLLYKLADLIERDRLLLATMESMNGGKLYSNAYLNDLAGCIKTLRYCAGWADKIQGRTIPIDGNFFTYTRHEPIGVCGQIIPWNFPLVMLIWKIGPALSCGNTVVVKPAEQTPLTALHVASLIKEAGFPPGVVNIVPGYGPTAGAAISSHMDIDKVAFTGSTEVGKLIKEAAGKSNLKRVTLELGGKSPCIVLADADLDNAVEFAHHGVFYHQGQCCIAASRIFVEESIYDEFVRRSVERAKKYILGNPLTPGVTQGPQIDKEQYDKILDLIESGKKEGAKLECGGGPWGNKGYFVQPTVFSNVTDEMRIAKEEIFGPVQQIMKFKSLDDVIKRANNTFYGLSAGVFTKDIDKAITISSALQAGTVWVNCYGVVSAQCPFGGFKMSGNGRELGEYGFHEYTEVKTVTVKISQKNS
Assay: qHTS Assay for Inhibitors of Aldehyde Dehydrogenase 1 (ALDH1A1);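 on activity, negative = inhibition: plate controls were no enzyme wells and a reference inhibitor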
Details: Purified ALDH1A1, NADH fluorescence, propionaldehyde substrate; series mostly up to 75.3 µM; activity, negative = inhibition: at the top concentration
Potency means the concentration at half of the fitted maximal effect; tags describe the fitted curve by direction and shape.

Structure (SMILES)	Potency	activity, negative = inhibition
O=C(c1ccc2c(c1)OCO2)C1CCCN(Cc2ccc3nsnc3c2)C1 (stereo not given)	inconclusive [inhibitor, single point]	–
Cc1nnc(NC(=O)CSc2ccc(-c3ccco3)nn2)s1	active: 7.08 µM	–
O=C(CN1CCN(c2ccc(Cl)cc2)CC1)N1CCCC1	–	inactive: -0.83%
COc1ccc(/C=N/Nc2nc3ccccc3[nH]2)cc1OC	–	inactive: 4.42%
CCc1ccc(NCCC(=O)c2ccc(Cl)cc2)cc1	active: 1.58 µM	–
O=C(CSc1nc2ncc(Cl)cc2[nH]1)N(Cc1ccccc1)C1CCS(=O)(=O)C1 (stereo not given)	inconclusive [inhibitor, single point]	–
COC(=O)c1ccc(C(NC(=O)OCc2ccccc2)/C(C)=C/[C@@H](C)C(=O)N2CCN(C)CC2)cc1 (stereo not given in full)	inconclusive [inhibitor, single point]	–
CC(=O)N1CCN(c2cccc(C)c2C)CC1	inconclusive [inhibitor, single point]	–
CCOC(=O)CSc1nc2cc(C(=O)N3CCCC3)ccc2c(=O)n1Cc1ccccc1	active: 25.1 µM	–
COc1ccc(S(=O)(=O)N2CCOCC2)cc1NC(=O)c1cc2c(s1)CCCC2	active: 3.98 µM	–
O=c1sc(N2CCN(c3ccc(F)cc3)CC2)nc2ccsc12	inconclusive [inhibitor, partial curve]	–
O=C(Nc1cccc(NC(=O)c2ncn[nH]2)c1)c1cccc(Cl)c1	inconclusive [inhibitor, partial curve]	–
COC(=O)C1=C(C)N(Cc2ccccc2)C2=C(C(C)=O)C[C@@](O)(C(=O)OC)C(=O)N2C1c1ccccc1 (stereo not given in full)	–	inactive: 13.3% [at 13.5 µM] and inactive: -5.52% [at 13.5 µM]
Cc1nnc(SCC(=O)Nc2ccc(S(=O)(=O)N3CCCCC3)cc2)s1	–	inactive: 7.11%
C/C(=N/NS(=O)(=O)c1ccc(Br)cc1)c1ccc(NC(=O)c2ccc(C)o2)cc1	–	inactive: -7.48%
CC(C)CNS(=O)(=O)c1ccc(CCC(=O)N2CCN(Cc3ccccc3)CC2)cc1	inconclusive [inhibitor, single point]	–
Fc1ccc(Oc2ccc3nnc(C(F)(F)F)n3n2)cc1	inconclusive [inhibitor, single point]	–
CCOC(=O)N1CCN(C(=O)/C(=C/c2cccc3ccccc23)NC(=O)c2ccc(OC)c(OC)c2)CC1	inconclusive [inhibitor, single point]	–
Brc1ccc(-c2ccc(/C=N/Nc3nc4ccccc4[nH]3)o2)cc1	inconclusive [inhibitor, full curve, poor fit]	–
O=C(Nc1ccccc1C(=O)NCCCn1ccnc1)c1ccc(Cl)cc1Cl	inconclusive [inhibitor, single point]	–
COc1ccc(N/C(C)=C/C(=S)Nc2ccccc2)cc1	inconclusive [inhibitor, partial curve, poor fit]	–
O=C(N/N=C/c1cccc([N+](=O)[O-])c1)c1ccc(Br)cc1	–	inactive: 1.94%
CCOC(=O)/C=C1\SCC(=O)N1CCOc1cccc(Br)c1	–	inactive: -5.5%
CN(C)c1ccc(C2Nc3ccccc3C(=O)N2CCCN2CCOCC2)cc1 (stereo not given)	inconclusive [inhibitor, single point]	–
COC(=O)[C@@]1(Cc2ccc(F)cc2)[C@H]2c3cc(C(=O)N4CCCC4)n(CCO)c3C[C@H]2CN1C(=O)c1ccccc1	–	inactive: 4.56%

Structure (SMILES)	Potency	activity, negative = inhibition
CC(=O)N(Cc1c(C#N)c2ccccc2n1C)c1ccccc1	inconclusive [inhibitor, partial curve]	–
CC(C)(C)c1ccc(Cn2c(=N)n(CC(O)c3ccco3)c3ccccc32)cc1 (stereo not given)	inconclusive [inhibitor, partial curve]	–
COC(=O)c1ccc(Oc2nc(C)cc(Oc3ccccc3)n2)cc1	inconclusive [inhibitor, single point]	–
CC(=O)Cc1nsc(Nc2ccc(C)cc2)n1	–	inactive: 4.06%
COc1ccc(-c2nc(CCNS(=O)(=O)c3ccc4c(c3)OCCO4)cs2)cc1	inconclusive [inhibitor, partial curve]	–
O=C(Nc1cccc(-c2nnc(-c3ccccc3)o2)c1)C1CC1	–	inactive: 3.58%
CCCCCCCCCCCCCCC(C(=O)O)C(O)(CC(=O)OC)C(=O)O (stereo not given)	–	inactive: -1.56%
Cc1cccc(-c2c(O)cc(=O)[nH]c2Cl)c1	–	inactive: 10.4%
COc1ccc(-n2c(N)c(C#N)c3ccc([N+](=O)[O-])cc3c2=O)cc1	inconclusive [inhibitor, single point]	–
O=C(O)c1cccc(N2C(=O)/C(=C/c3ccc(SCc4ccc(Cl)cc4)o3)SC2=S)c1	active: 25.1 µM	–
Cc1cccc(N=Cc2cc3c(cc2[N+](=O)[O-])OCO3)c1	inconclusive [inhibitor, full curve]	–
CCOC(=O)N1CCN(C(c2cccnc2)c2ccc3cccnc3c2O)CC1 (stereo not given)	active: 1.58 µM	–
Cc1c(-n2c(O)c(C3=c4ccccc4=NC3=O)sc2=S)c(=O)n(-c2ccccc2)n1C	active: 7.94 µM	–
CC(C)N1CCc2c(sc(NC(=O)c3ccc(S(=O)(=O)N4CCc5ccccc54)cc3)c2C(N)=O)C1	inconclusive [inhibitor, single point]	–
Cc1cc(=O)oc2c3c4c(cc12)OCCN4CCC3	inconclusive [inhibitor, partial curve]	–
COc1cc([N+](=O)[O-])cc2sc(NC(=O)C3CC3)nc12	–	inactive: -1.16%
CC(=O)c1c(C)[nH]c(C(=O)OCC(=O)Nc2sc3c(c2C#N)CCCC3)c1C	inconclusive [inhibitor, single point]	–
CCOC(=O)C1CCN(CCC(=O)Nc2ccc(F)cc2)CC1	–	inactive: 10.5%
CSCCC(Nc1nc2ccccc2s1)C(=O)O (stereo not given)	inconclusive [inhibitor, single point]	–
CCOC(=O)c1nnn(-c2nonc2NC(C)=O)c1C	–	inactive: 14.6%
COc1ccccc1N1CCN(CCC(=O)Nc2ccc3c(c2)OCO3)CC1	–	inactive: -3.1%
Cc1cc(C)cc(N=C2NC(=O)/C(=C/c3cccs3)S2)c1	–	inactive: -17.8%
COc1ccc(NC(=O)CSc2nnc(CN3CCOCC3)n2-c2ccccc2)cc1Cl	inconclusive [inhibitor, single point]	–
OCC(O)/C=N/Nc1nc(N2CCCCC2)nc(N2CCCCC2)n1 (stereo not given)	–	inactive: 2.6%
COc1ccc(C)cc1-n1nnnc1SCc1cn2ccsc2n1	active: 14.1 µM	–

Structure (SMILES)	Potency	activity, negative = inhibition
Cc1ccc(/C=C/C(=O)N2CCN(S(=O)(=O)c3ccc(C)c(C)c3)CC2)o1	active: 3.55 µM	–
COC(=O)C1C(=O)C(C(=O)/C=C/c2ccco2)C(=O)CC1(C)C (stereo not given)	–	inactive: 8.91%
Cc1ccc(/C=N/N=C2/NC(=O)CS2)o1	–	inactive: -6.6%
COc1ccccc1N1CCN(CC(O)COc2c(OC)cccc2OC)CC1 (stereo not given)	inconclusive [inhibitor, single point]	–
Cc1ccc(SCc2noc(C(=O)NC(C)C)c2C(=O)O)cc1C	inconclusive [inhibitor, single point]	–
Cc1cccc(NC(=O)c2cc(-c3ccco3)nc3ccccc23)n1	inconclusive [inhibitor, partial curve]	–
CC(C)Oc1ccc(CNC(=O)CC(c2ccccc2)c2cc(Cl)ccc2O)cc1 (stereo not given)	–	inactive: -1.2%
CN(C)c1ccc(C2Nc3ccccc3C(=O)N2CCN2CCNC2=O)cc1 (stereo not given)	inconclusive [inhibitor, partial curve]	–
CCCCN(CC)C(=O)c1cc2cc3ccc(OC)cc3nc2o1	inconclusive [inhibitor, partial curve]	–
CC(Sc1nnnn1C)C(=O)Nc1ccc2c(c1)OCCO2 (stereo not given)	–	inactive: 2.71%
COc1ccccc1NC(=O)c1ccccc1NS(=O)(=O)c1cccs1	–	inactive: 5.81%
COc1ccc(-n2c(C)cc(C=O)c2C)cc1Cl	active: 1 µM	–
COc1ccc(CCCc2nnc(SCC(=O)Nc3ccccc3F)o2)cc1	inconclusive [inhibitor, single point]	–
CN(Cc1ccccn1)Cc1cn(Cc2ccccc2)nc1-c1ccc2c(c1)OCO2	inconclusive [inhibitor, single point]	–
Cn1c(/C(C#N)=N/O)nc2ccccc21	inconclusive [inhibitor, single point]	–
Cn1c(/C=C/c2ccc([N+](=O)[O-])o2)nc2ccccc2c1=O	inconclusive [inhibitor, partial curve]	–
O=c1c2ccccc2c(/C=N/n2cnnc2)c(O)n1-c1ccccc1	inconclusive [inhibitor, single point]	–
O=C(O)CC/C(=C\c1ccc(N2CCCC2)c([N+](=O)[O-])c1)c1nc2ccccc2s1	active: 1.26 µM	–
C/C(=N\NC(=O)OC(C)(C)C)c1ccccc1Br	–	inactive: 0.959%
COc1ccc(CNCCC(c2ccccc2)c2ccc3c(c2)OCO3)cc1 (stereo not given)	inconclusive [inhibitor, partial curve]	–
O=C(/C=C/c1ccccc1Cl)c1ccc[nH]1	–	inactive: -4.59%
O=S(=O)(/N=C(/c1ccc(F)cc1)N1CCCCC1)c1ccc(Cl)cc1	inconclusive [inhibitor, single point]	–
COCCN1Cc2cccc(C(=O)Nc3cccnc3)c2C1=O	inconclusive [inhibitor, partial curve]	–
COc1ccccc1C(=O)N/C(=C/c1cccc([N+](=O)[O-])c1)C(=O)Nc1cccc(C(=O)O)c1	–	inactive: -6.75%
Cc1ccc2[nH]c3c(c2c1)CN(C(=O)CN(C)CC1OCCO1)CC3	inconclusive [inhibitor, single point]	–
